Assay results taken from the supplement of paper PMC12632987.
Over roughly 4,500 sequences, “median log2 fold change of GCK-ALFA target abundance (FLAG IP / Myc IP barcode read proportion)” has its median near 0.078; the lowest 2% begin near -0.6. Some of the results follow.

B1: GBRAP_150_3917 (protein)
chain: DLETLLTVAETLKDLLEAILEGHFELLPHALKLAKAALELAKDITPEVEKLAREALEKVEKAEKAIKEGAPEEEVKKLAKEALKYAEELIKEIKKLIEEE
B2: GBRAP_14_3882 (protein)
chain: EEKIKALLKEHLKRFEEELERLRKLGLEEEAEKLEKRLEEELKKAEAAGDLAAAAKAAAAAAAEAEAIVLRKEEGWSEATAEAYARTEVANAELEIDELE
B3: GBRAP_14_3880 (protein)
chain: MEEIEKVLEEEFEDLAEDLAAMFPAKAEEIRELVEEERERAIERIRETGDVEKALREAEERLKARLTELLADEPETAIAAAKALVTNEIAEAELKIEELL
B4: GBRAP_80_6797 (protein)
chain: AAAALAAALAALAEVDAELAARVAAIVATARALGVSDADLADFVAAVLELAKADKEEAAALVDETEALLAEEAARGDTANATAVIRVHAGDALLAVEELE
B5: GBRAP_35_5560 (protein)
chain: DSDATIVDMMVNTIEDLTEAVADIPPAELRAITEQLAASAKAVVDDIADDKAGLERILAALEALRAAIAARGLDDPDLRAAAAAVDDAIAAARAAIAAAA
B6: GBRAP_125_3122 (protein)
chain: SEEEDLENLAALLKALGLDDEDVEEAVELARRFSIRGTLAAVMRALGREELADAVEKLTEEQTKEVVRKVVEYIKANPELTPEEVAELLLKTAKEAVAAS
B7: GBRAP_52_6340 (protein)
chain: SEEEVRRVAEEIAAAVEAGDLDRAVELTREAVRRFSREEVRRMLRLTAELMAERLPDRPDLVMEAAFRIADVVEEELGDEVLADDFLAYTARLLVERQQA
B8: GBRAP_84_7009 (protein)
chain: SRREERARLIRELVANATPELLIALATELAILGDGEGETLLLSELIERDPEVAAEALDRSTEVLLEGREAEARAELEALIAAASPEVQALVRRLLALARE
B9: GBRAP_160_4158 (protein)
chain: KEKVEELIKEIKEIFEEMKEMIEGETIEQRQVIISGYFGEIIMLIFESDVVSEEVEDLAVKLEDELVETLKANPDLTLEEIKELIDEVEKKILEKIKESA
B10: GBRAP_52_6110 (protein)
chain: MREEARRFVRELLALVKAGRLEEARARIRELVERWNDEELRILGEALAELAKEAAPEDLDAVWRLAEMIAEAMEEAGKDEVLADDLLSRVAAALYERTLK
B11: GBRAP_53_6395 (protein)
chain: AEAEIKEGVAELEALIAEVEADPTLDAAEVAKRAGELLKKLAEAGAPEEELTALAKRLAEAVAAKGLGVEVSTALAKTAAEAGREEVAYVFIEAAVEDLE
B12: GBRAP_52_6102 (protein)
chain: MREELRKKVREILELVREGKLEEARKKIKELVESLNDEEIRLVADEIAELAREAAPEDLDAVWTLAEMFAEELEKAGKPEVLVDYLLASTAAALYEREQA
B13: GBRAP_184_5148 (protein)
chain: TTLRAAIEAATVEEALAKAREVFAEAKAAGADLTLHVFAEGFSVEEIAALAAALKAAADEAGLTNATIILHVEADEEEADEVLAAADAAGVRAVIALLEP
B14: GBRAP_160_4789 (protein)
chain: SERVERAAALIREELERALELSEGESPEERVNIFDVELGAAIMELIEEGLLDDEEEEVVAEARDELVAAVRANPDLTPEELRALAEAAVERVRAALEALE
B15: GBRAP_9_7113 (protein)
chain: MEVDKEVLKKAVEEAEKDLKKLAEDLENEKVKEIVEEAIKELKKLTEIEGITLEELEEKLDEIVEKAVKRAKEEVSEEIAKALEAELLTEKEDILEAVEE
B16: GBRAP_160_4437 (protein)
chain: MEKLEKAKKEIDEIIAEAIEMTKGESAEQRIVIVRVARGEILLELEELGLLTDKIDKVIDETFDAIIATIEANPDISDEELAAMLEEARDKIIEELDKEF
B17: GBRAP_14_3781 (protein)
chain: MEEIEKIIREEADRIIELLTEIVPEKAEEIRAIVEEVRDKTIARIRETGNAEEAADEGREELIARIRELLADEPEEVRAQAIAVVDVEFGQAILEIEELL
B18: GBRAP_128_3296 (protein)
chain: SAAELRARFEARVRALTALTPEALYEATLALIAEASALGLEAVEILVEVLEKHLPLFTPEQLEAIAAALAEAAKTATPEERALLADAENDALLEAEEKEE
B19: GBRAP_160_4434 (protein)
chain: SEKLEKAKKEIKEIAEEAAEMMKGESAEQRQVVVRVMEGEIILELEELGLLTEEIDKLIEEKAEEIIKYIKENPNISDEEFAKMLEAFVKEISEKLEKEF

Molecular target: GABARAP, O95166
Sequence (O95166 whole entry, the tested form may be a part): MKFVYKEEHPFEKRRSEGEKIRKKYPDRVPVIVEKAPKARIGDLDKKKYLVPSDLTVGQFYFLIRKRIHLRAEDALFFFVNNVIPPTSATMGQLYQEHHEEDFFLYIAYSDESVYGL
Experiment: median log2 fold change of GCK-ALFA target abundance (FLAG IP / Myc IP barcode read proportion) (log2 ratio); each designed protein is fused to an ALFA-tag nanobody in HEK293 cells to bring the named protein to FLAG-tagged glucokinase (GCK); Myc marks an untargeted standard; higher = target protein stabilised (more abundant)
Conditions: target protein: 3xFLAG-MCP-GCK-ALFA reporter; HEK293 landing pad (RPLP)
Procedure, shortened: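 An ALFA-nanobody-fused binder library was recombined into HEK293 landing-pad cells and induced with 2 μg mL^−1 doxycycline. Cells were transfected with a plasmid expressing a FLAG-tagged target and a Myc-tagged standard. After 48 h, lysates underwent anti-FLAG and anti-Myc immunoprecipitation, and circular RNA barcodes were reverse transcribed, amplified and sequenced. Target abundance is the per-binder median log2 ratio of FLAG to Myc barcode read proportions. Barcodes needed ≥10^−7 proportion in both replicates, binders ≥3 barcodes per replicate, and a 10^−6 pseudocount was added; the two replicates were pooled.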

Row | Binder | median log2 fold change
1 | B1 | 0.0758
2 | B2 | 0.279
3 | B3 | 0.368
4 | B4 | -0.147
5 | B5 | 0.127
6 | B6 | 0.00437
7 | B7 | -0.23
8 | B8 | -0.262
9 | B9 | -0.126
10 | B10 | 0.0953
11 | B11 | 0.239
12 | B12 | 0.197
13 | B13 | 0.038
14 | B14 | 0.205
15 | B15 | 0.305
16 | B16 | -0.0852
17 | B17 | 0.184
18 | B18 | 0.161
19 | B19 | -0.0228
